# ± gives the standard deviation of the averaged measurements. The list shows a part of the results.
# Tested on: PfAP2-G AP2 domain (GST-tagged)
# Experiment: gcPBM binding intensity (ln(normalized median fluorescence intensity)); higher = stronger DNA binding
# Procedure, shortened: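 After 1 h on an Agilent 4 × 180k array of primer-extended double-stranded 36-bp intergenic genomic probes and negative controls, bound GST-tagged P. falciparum DNA-binding domains were detected with Alexa488 anti-GST antibody and scanned at 488 nm. The domains had been expressed in E. coli, and binding took place in 1× PBS with 1% milk, 0.2 mg/ml BSA, 0.5% salmon testes DNA and 0.03% Triton X-100. Binding intensity is the highest Masliner-normalised natural-log median intensity across replicate spots of either probe orientation.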
row,Sequence,gcPBM binding intensity (ln)
1,TTCTTTATATATTTTTGTACATATTTATTTTTAGAG [XGTACX_site6757],11.1 ± 0.38
2,TGAAAGAATAGAATGAGTACTAATTTAAATTACACT [XGTACX_site1120],11.1 ± 0.72
3,ATGTATGGTTTATATGTTCATTTGTTCACCTATTTA [CACACA_negctrl_site1533],10.27 ± 0.021
4,AAAAAAAAAAAAAACACACACACACCCATACCCATA [CACACA_site5577],10.5 ± 0.33
5,TTAGGTAGAAAAAAGACACACACATTATATATATAT [CACACA_site8016],10 ± 0.18
6,ATATATATTTAAGAGGGTACAAAAATTTATGAGCAT [XGTACX_site6156],10.9 ± 0.51
7,ATAAAACAAGCAAATCGTACAAAAGGATAATATATA [XGTACX_site5592],11 ± 0.54
8,ATATATATATATGTTAGTACATAACAAGTGTGCATA [XGTACX_site1527],11 ± 0.49
9,TCTTTGGTAATATATATGTATAAATATAAATATATA [CACACA_negctrl_site1566],9.96 ± 0.27
10,GATAAAATGAGACCAGTGCATTATTAGTTGTACACC,11.6 ± 0.84
11,TTTTTTGCTAAGTGTACACAAATGTTTATTAATTTA [CACACA_site5859],11.7 ± 1
12,AAAAAGAAAAAAAACACACACAAATATAAATAAATA [CACACA_site1183],9.65 ± 0.15
13,ATATATATATATATATGTACATATTACATTACTTAT [XGTACX_site749],11.1 ± 0.65
14,TGTGCTTATCCTAACACACACAACATATAAGAAAAA [CACACA_site3319],10.1 ± 0.23
15,AAAAAATAAAAAATATGTACACATTCAAAATTTTAC [XGTACX_site8479],11.4 ± 0.94
16,TATACATATTTATACACACACACATATATTTATATA [CACACA_site6727],10.11 ± 0.085
17,ATATTTTATACTTGCACACAAAATATATTAAAATGG [CACACA_site5139],10.2 ± 0.19
18,ATAAAATTGGAGCAAACACACAAGGTTGAAATTAAC [CACACA_site506],10.09 ± 0.021
19,TTTTCTATATAGTGTTGTACATTATTGTGTAAAAAT [XGTACX_site3223],11.2 ± 0.81
20,TACAATATAAAATACACACGCACACCGAAAAAAAAA [CACACA_site5865],10.4 ± 0.36
21,TTATGTTGTAAATGCACACATACAAATACATATACA [CACACA_site1368],10.2 ± 0.17
22,ATTTAATATCACAATATATTTTTTACCCTTATCAGC [CACACA_negctrl_site491],9.7 ± 0.28

row,Sequence,gcPBM binding intensity (ln)
1,ATTTATTAAAAGAAATGTACAGAAAATGTTTGGAAT [XGTACX_site7187],11 ± 0.49
2,AAGAAAAAAAAGATAATAATAATAATAATAAAATGA [TGCATGCA_negctrl_site398],9.7 ± 0.13
3,TGGTAAATTGAGAATCGTACATTAAAAAACATAAAA [XGTACX_site3253],11.2 ± 0.77
4,GGAATGGTACATGATACACACACGCACATATAAATA [CACACA_site7581],10.8 ± 0.51
5,TATATGGTATGTATTACACACATATCACATATATAT [CACACA_site3045],9.98 ± 0.099
6,GAGGGAAAAAATAATCGTACAAAGAAAAAAAAAAAT [XGTACX_site7361],11.1 ± 0.69
7,TATATTCTTTTTTTAACACACAAAAAAAATAAAATA [CACACA_site1898],9.99 ± 0.29
8,AAAAAAATTAAAGATTGTACTTGATTTTTCATTTTA [XGTACX_site6685],11 ± 0.71
9,TAAAAAATAAAATACACACACATATATATATATATA [CACACA_site1323],9.93 ± 0.31
10,AAAGAATTGTATAAAAGTACATATTTGTTTGTTTTA [XGTACX_site7380],11.2 ± 0.81
11,TTTTTTTCATAAATTAGGTAATGTCGCAGGGGGACA [TGCATGCA_negctrl_site556],11.5 ± 0.91
12,TATTTAAAAACAAAAAGTACTAATATATATTTATAC [XGTACX_site1422],11 ± 0.75
13,TATATATTATATATATGTACTTATTCATATATATAA [XGTACX_site3860],11.2 ± 1
14,CTTTAATATATTTAAGTGCAAAACTAATATGTAAAG,10.2 ± 0.15
15,AAAGAAAAAGAAAAAGAAAAAATAAAATAAAATAAA [CACACA_negctrl_site872],9.59
16,GACTGAACAACATAATGTACATTTATAAGTATATAT [XGTACX_site3813],10.9 ± 0.52
17,AGTAGTATGGAGAAAAGTACATAGTATCTGATAACC [XGTACX_site2040],11.3 ± 0.88
18,TCAAAACATTATTCCATACACACCATACTTTTTAAT [CACACA_site2770],10.18 ± 0.078
19,GAATTATAAATTATAGTGCATAAAATTATGGCATAA [GTGCAC_site9938],9.99 ± 0.14
20,TTGAATTATAAGAATAAACACACAAGCTTAAAAAAA [CACACA_site8318],9.93 ± 0.042
21,TATTTAAATTTGTATAATGGACGAATTATATAGAAA [GTGCAC_negctrl_site650],10.6 ± 0.54
22,CCCACAGACGGACACACACACATATATATATATATA [CACACA_site4351],11.6 ± 1.2

# Source: the supplement of paper PMC11417369
